Measurements: the supplement of paper PMC4967469
A lower IC50 marks a more sensitive line; a fit beyond the top or the lowest dose is shown as a bound at that dose. AUC, from the same fit, is the share of area under the viability curve across the 256-fold dose range: 1 means no effect, lower means more sensitive. For some assays here: An inferred top dose was calculated from the reported fits. For some assays here: An entry number marks a drug with two screens in the source, which often give different values.

Tests used:
Assay in all cases: Viability of human cancer cell lines after 72 h of drug (GDSC screen)
AZ628 = compound: Cc1ccc(NC(=O)c2cccc(C(C)(C)C#N)c2)cc1Nc1ccc2ncn(C)c(=O)c2c1 [AZ628]; conditions: top dose 4 µM; top dose inferred
Protocol: (§1)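 Human cancer cell lines in 384-well plates, medium with 10% serum, drug for 72 h over a 256-fold dose range (nine 2-fold or five 4-fold steps up to the top dose). Adherent lines were fixed and stained with the nucleic acid dye Syto60, suspension lines read with resazurin; signal relative to control wells, capped at 0 and 100%. One two-parameter sigmoid per drug and line, fitted in a mixed model over all curves with the slope shared within a line.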

AZD6244 = compound: Cn1cnc2c(F)c(Nc3ccc(Br)cc3Cl)c(C(=O)NOCCO)cc21 [AZD6244]; conditions: top dose 4 µM; screen: GDSC drug entry 1498; top dose inferred
Protocol: as §1

AS601245 = compound: N#CC(c1ccnc(NCCc2cccnc2)n1)c1nc2ccccc2s1 [AS601245]; conditions: top dose 8 µM; top dose inferred
Protocol: as §1

EX-527 = compound: NC(=O)C1CCCc2c1[nH]c1ccc(Cl)cc21 [EX-527]; conditions: top dose 20 µM
Protocol: as §1

YM201636 = compound: Nc1ccc(C(=O)Nc2cccc(-c3nc(N4CCOCC4)c4oc5ncccc5c4n3)c2)cn1 [YM201636]; conditions: top dose 5.12 µM; top dose inferred
Protocol: as §1

Cell Line	AUC (AZ628)	IC50 (AZ628) [µM]	AUC (AZD6244)	IC50 (AZD6244) [µM]	AUC (AS601245)	IC50 (AS601245) [µM]	AUC (EX-527)	IC50 (EX-527) [µM]	AUC (YM201636)	IC50 (YM201636) [µM]
ES4 (Ewing sarcoma, adherent)	0.968	> 4	0.97	> 4	0.802	4.63	0.949	> 20	0.703	1.31
ES5 (Ewing sarcoma, adherent)	0.937	> 4	0.965	> 4	0.912	> 8	0.975	> 20	0.626	0.754
ES6 (Ewing sarcoma, adherent)	0.916	> 4	0.926	> 4	0.77	3.77	0.957	> 20	0.866	> 5.12
ES7 (Ewing sarcoma, adherent)	0.978	> 4	0.967	> 4	0.768	3.09	0.95	> 20	0.438	0.216
ES8 (Ewing sarcoma, adherent)	0.939	> 4	0.946	> 4	0.835	4.74	0.983	> 20	0.672	0.925
ES-2 (ovary, adherent)	0.787	1.51	0.497	0.246	0.978	> 8	0.991	> 20	0.948	> 5.12
ETK-1 (biliary tract, adherent)	0.969	> 4	0.904	> 4	0.833	6.19	0.983	> 20	0.81	3.15
EVSA-T (breast, adherent)	0.991	> 4	0.988	> 4	0.952	> 8	0.987	> 20	0.867	3.55
EW-1 (Ewing sarcoma, semi-adherent)	0.985	> 4	0.98	> 4	0.858	5.73	0.989	> 20	0.688	1.03
EW-3 (Ewing sarcoma, adherent)	0.873	> 4	0.98	> 4	0.958	> 8	0.978	> 20	0.688	1.17
EW-11 (Ewing sarcoma, adherent)	0.848	> 4	0.956	> 4	0.95	> 8	0.964	> 20	0.801	3.39
EW-13 (Ewing sarcoma, suspension)	0.962	> 4	0.984	> 4	0.881	> 8	0.975	> 20	0.737	1.65
EW-16 (Ewing sarcoma, adherent)	0.982	> 4	0.959	> 4	0.845	6.18	0.983	> 20	0.812	2.88
EW-18 (Ewing sarcoma, suspension)	0.894	> 4	0.98	> 4	0.847	6.5	0.985	> 20	0.74	1.65
EW-24 (Ewing sarcoma, semi-adherent)	0.877	3.18	0.992	> 4	0.902	> 8	0.993	> 20	0.965	> 5.12
EoL-1-cell (haematopoietic neoplasm, suspension)	0.906	> 4	0.752	1.19	0.74	2.19	0.886	17.6	0.824	2.57
Farage (B-cell lymphoma, suspension)	0.955	> 4	0.992	> 4	0.844	4.27	0.993	> 20	0.399	0.179
GB-1 (glioma, adherent)	0.858	> 4	0.953	> 4	0.898	> 8	0.792	10.9	0.886	> 5.12
GDM-1 (acute myeloid leukaemia, suspension)	0.293	0.0673	0.927	> 4	0.843	5.29	0.976	> 20	0.683	1.01
GI-1 (glioma, adherent)	0.891	> 4	0.911	> 4	0.765	2.81	0.976	> 20	0.902	> 5.12
